Measured values taken from US20240190896A1, “SMTP-7 DERIVATIVE AND USE THEREOF” (Shanghai Senhui Medicine Co., Ltd., priority 2021, published 2024).

Tests used:
[1] = tested on: cerebral infarction model (embolic stroke model); experiment: Thromboembolism in rats: neurological function scoring; type: in vivo, rat; settings: for Behavioral scores, before administration: score 1 h after model; for behavior compared to the model group (in words): 10 mg/kg
Description: The catheter was carefully withdrawn. […] Each group included 10 rats. […] The extent of behavioral disorders in the animals was observed and scored before administration and 24 h after treatment. The scoring criteria were as follows: [table] The metrology data are expressed as x±s, and pairwise comparisons were made using T-TEST; P<0.05 indicates a statistical difference.

[2] = tested on: cerebral infarction model (embolic stroke model); experiment: Thromboembolism in rats: cerebral infarction range assay (TTC); type: in vivo, rat; settings: for Infarction area %: 24 h after administration; for cerebral infarction area compared to the model group (in words): rat, in vivo
Description: The catheter was carefully withdrawn. […] Each group included 10 rats. […] The brain tissue sections were placed into a 2% solution of tetrazolium chloride (TTC) and incubated at 37° C. for 5 min. The infarcted tissues were white, and the non-infarcted tissues were red. The cerebral infarction area was measured using Image J software, and the percentage of the infarction area to the total brain area was calculated. Percentage of cerebral infarction area %=cerebral infarction area/total brain area×100% The metrology data are expressed as x±s, and pairwise comparisons were made using T-TEST; P<0.05 indicates a statistical difference.

SMILES	Behavioral scores, 24 h after administration ([1]; 5 mg/kg i.v.)	Behavioral scores, before administration ([1]; 5 mg/kg i.v.)	behavior compared to the model group (in words) [1]	Behavioral scores, 24 h after administration ([1]; 10 mg/kg i.v.)	Behavioral scores, before administration ([1]; 10 mg/kg i.v.)	Behavioral scores, 24 h after administration ([1]; 20 mg/kg i.v.)	Behavioral scores, before administration ([1]; 20 mg/kg i.v.)	Infarction area % ([2]; 5 mg/kg i.v.)	Infarction area % ([2]; 10 mg/kg i.v.)	Infarction area % ([2]; 20 mg/kg i.v.)	cerebral infarction area compared to the model group (in words) [2]
[2H]C([2H])(CC[C@@H](C(=O)O)N1Cc2c(cc(O)c3c2O[C@@](C)(CC/C=C(\C)CCC=C(C)C)[C@@H](O)C3)C1=O)N1Cc2c(cc(O)c3c2O[C@@](C)(CC/C=C(\C)CCC=C(C)C)[C@@H](O)C3)C1=O [Compound 1, δ-Deutero SMTP-7]	7.1 ± 1.8	10.5 ± 0.5	showed improvements compared to the model group	6.5 ± 2.5	10.2 ± 0.4	6.6 ± 2.2	10.2 ± 0.4	2.47 ± 2.21 %	1.38 ± 0.9 %	1.7 ± 1.1 %	significant improvements
CC(C)=CCC/C(C)=C/CC[C@]1(C)Oc2c(c(O)cc3c2CN(CCC[C@@H](C(=O)O)N2Cc4c(cc(O)c5c4O[C@@](C)(CC/C=C(\C)CCC=C(C)C)[C@@H](O)C5)C2=O)C3=O)C[C@@H]1O [SMTP-7, Stachybotrys microspore triprenyl phenol-7]			showed improvements compared to the model group	6.3 ± 2.4	10.2 ± 0.4				1.9 ± 2.35 %		significant improvements
